According to publication PMC12820563:
Some of the results follow. The list includes weakly bound sequences.

Target: T1, MBP-FoxP3dN (UniProt Q99JB6)
T1 sequence: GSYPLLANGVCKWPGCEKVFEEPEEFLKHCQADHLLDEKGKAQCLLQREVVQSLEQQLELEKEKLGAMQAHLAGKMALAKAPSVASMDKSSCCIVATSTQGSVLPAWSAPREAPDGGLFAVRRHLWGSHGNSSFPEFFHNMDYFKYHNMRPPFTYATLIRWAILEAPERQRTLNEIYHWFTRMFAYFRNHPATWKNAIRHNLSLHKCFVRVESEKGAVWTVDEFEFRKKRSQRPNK
Assay: PD-seq (MBP pull-down with sequencing)
Settings: 20 mM Tris-HCl pH 7.5, 100 mM NaCl, 1.5 mM MgCl2, 0.4 uM protein, 0.1 uM dsDNA library, 30 min, room temperature, amylose pull-down; high values mean tight binding; double strand, one strand shown

Row | Sequence | binding signal (RPM ratio (pull-down/input))
1 | GATGATTGTTCTCCCAGCTGATGAATTGGTATCGTCGAGTAAACAAATTTTCCTAATCTTTCTGTTCAAGCGCCATCTAC | 1.23
2 | GATGATTGTTCTCCCAGCTGATGAATTTACACCGTCGAGTAAACAAATTTTCCTAATCTTTCTGTTCAAGCGCCATCTAC | 0.505
3 | GATGATTGTTCTCCCAGCTGATGAATTCAGAATTTCGAGTAAACAAATTTTCCTAATCTTTCTGTTCAAGCGCCATCTAC | 1
4 | GATGATTGTTCTCCCAGCTGATGAATTCTGGCGCTCGAGTAAACAAATTTTCCTAATCTTTCTGTTCAAGCGCCATCTAC | 0.343
5 | GATGATTGTTCTCCCAGCTGATGAATTTTCGTAGTCGAGTAAACAAATTTTCCTAATCTTTCTGTTCAAGCGCCATCTAC | 0.337
6 | GATGATTGTTCTCCCAGCTGATGAATTTGCAATTTCGAGTAAACAAATTTTCCTAATCTTTCTGTTCAAGCGCCATCTAC | 2.77
7 | GATGATTGTTCTCCCAGCTGATGAATTTATACCCTCGAGTAAACAAATTTTCCTAATCTTTCTGTTCAAGCGCCATCTAC | 0.857
8 | GATGATTGTTCTCCCAGCTGATGAATTGCCGAACTCGAGTAAACAAATTTTCCTAATCTTTCTGTTCAAGCGCCATCTAC | 0.417
9 | GATGATTGTTCTCCCAGCTGATGAATTTGGCCTATCGAGTAAACAAATTTTCCTAATCTTTCTGTTCAAGCGCCATCTAC | 1.94
10 | GATGATTGTTCTCCCAGCTGATGAATTCATGACTTCGAGTAAACAAATTTTCCTAATCTTTCTGTTCAAGCGCCATCTAC | 0.5
11 | GATGATTGTTCTCCCAGCTGATGAATTCGAGTGTTCGAGTAAACAAATTTTCCTAATCTTTCTGTTCAAGCGCCATCTAC | 0.858
12 | GATGATTGTTCTCCCAGCTGATGAATTAATAGTATCGAGTAAACAAATTTTCCTAATCTTTCTGTTCAAGCGCCATCTAC | 0.837
13 | GATGATTGTTCTCCCAGCTGATGAATTCACTGAATCGAGTAAACAAATTTTCCTAATCTTTCTGTTCAAGCGCCATCTAC | 0.203
14 | GATGATTGTTCTCCCAGCTGATGAATTCTAAGAGTCGAGTAAACAAATTTTCCTAATCTTTCTGTTCAAGCGCCATCTAC | 0.245
15 | GATGATTGTTCTCCCAGCTGATGAATTGTCGCGTTCGAGTAAACAAATTTTCCTAATCTTTCTGTTCAAGCGCCATCTAC | 1.52
16 | GATGATTGTTCTCCCAGCTGATGAATTAGCATACTCGAGTAAACAAATTTTCCTAATCTTTCTGTTCAAGCGCCATCTAC | 1.31
17 | GATGATTGTTCTCCCAGCTGATGAATTCTGAGCTTCGAGTAAACAAATTTTCCTAATCTTTCTGTTCAAGCGCCATCTAC | 0.317
18 | GATGATTGTTCTCCCAGCTGATGAATTGATATTCTCGAGTAAACAAATTTTCCTAATCTTTCTGTTCAAGCGCCATCTAC | 0.89
19 | GATGATTGTTCTCCCAGCTGATGAATTATAGATATCGAGTAAACAAATTTTCCTAATCTTTCTGTTCAAGCGCCATCTAC | 0.499
20 | GATGATTGTTCTCCCAGCTGATGAATTCGGACCATCGAGTAAACAAATTTTCCTAATCTTTCTGTTCAAGCGCCATCTAC | 0.399
21 | GATGATTGTTCTCCCAGCTGATGAATTCCGCTACTCGAGTAAACAAATTTTCCTAATCTTTCTGTTCAAGCGCCATCTAC | 2.1

Row | Sequence | binding signal (RPM ratio (pull-down/input))
22 | GATGATTGTTCTCCCAGCTGATGAATTATAGCTTTCGAGTAAACAAATTTTCCTAATCTTTCTGTTCAAGCGCCATCTAC | 1.01
23 | GATGATTGTTCTCCCAGCTGATGAATTGCGTAAGTCGAGTAAACAAATTTTCCTAATCTTTCTGTTCAAGCGCCATCTAC | 0.656
24 | GATGATTGTTCTCCCAGCTGATGAATTTCCGGATTCGAGTAAACAAATTTTCCTAATCTTTCTGTTCAAGCGCCATCTAC | 0.227
25 | GATGATTGTTCTCCCAGCTGATGAATTCGGGTCTTCGAGTAAACAAATTTTCCTAATCTTTCTGTTCAAGCGCCATCTAC | 0.583
26 | GATGATTGTTCTCCCAGCTGATGAATTCTAACGCTCGAGTAAACAAATTTTCCTAATCTTTCTGTTCAAGCGCCATCTAC | 0.376
27 | GATGATTGTTCTCCCAGCTGATGAATTGTCAATATCGAGTAAACAAATTTTCCTAATCTTTCTGTTCAAGCGCCATCTAC | 1.57
28 | GATGATTGTTCTCCCAGCTGATGAATTAGCTTCCTCGAGTAAACAAATTTTCCTAATCTTTCTGTTCAAGCGCCATCTAC | 0.864
29 | GATGATTGTTCTCCCAGCTGATGAATTATCACTTTCGAGTAAACAAATTTTCCTAATCTTTCTGTTCAAGCGCCATCTAC | 0.47
30 | GATGATTGTTCTCCCAGCTGATGAATTTATCTAGTCGAGTAAACAAATTTTCCTAATCTTTCTGTTCAAGCGCCATCTAC | 0.605
31 | GATGATTGTTCTCCCAGCTGATGAATTATCTACTTCGAGTAAACAAATTTTCCTAATCTTTCTGTTCAAGCGCCATCTAC | 0.366
32 | GATGATTGTTCTCCCAGCTGATGAATTACATATTTCGAGTAAACAAATTTTCCTAATCTTTCTGTTCAAGCGCCATCTAC | 0.642
33 | GATGATTGTTCTCCCAGCTGATGAATTATAAATTTCGAGTAAACAAATTTTCCTAATCTTTCTGTTCAAGCGCCATCTAC | 0.351
34 | GATGATTGTTCTCCCAGCTGATGAATTTCAACTGTCGAGTAAACAAATTTTCCTAATCTTTCTGTTCAAGCGCCATCTAC | 0.377
35 | GATGATTGTTCTCCCAGCTGATGAATTGCGCAATTCGAGTAAACAAATTTTCCTAATCTTTCTGTTCAAGCGCCATCTAC | 5.72
36 | GATGATTGTTCTCCCAGCTGATGAATTTTTTCAATCGAGTAAACAAATTTTCCTAATCTTTCTGTTCAAGCGCCATCTAC | 0.247
37 | GATGATTGTTCTCCCAGCTGATGAATTGAAGATGTCGAGTAAACAAATTTTCCTAATCTTTCTGTTCAAGCGCCATCTAC | 0.334
38 | GATGATTGTTCTCCCAGCTGATGAATTAAGATCTTCGAGTAAACAAATTTTCCTAATCTTTCTGTTCAAGCGCCATCTAC | 0.292
39 | GATGATTGTTCTCCCAGCTGATGAATTCATGCGTTCGAGTAAACAAATTTTCCTAATCTTTCTGTTCAAGCGCCATCTAC | 1.68
40 | GATGATTGTTCTCCCAGCTGATGAATTGCTACCGTCGAGTAAACAAATTTTCCTAATCTTTCTGTTCAAGCGCCATCTAC | 0.615
41 | GATGATTGTTCTCCCAGCTGATGAATTATGGCTTTCGAGTAAACAAATTTTCCTAATCTTTCTGTTCAAGCGCCATCTAC | 1.21
42 | GATGATTGTTCTCCCAGCTGATGAATTTTACTCATCGAGTAAACAAATTTTCCTAATCTTTCTGTTCAAGCGCCATCTAC | 0.402

Row | Sequence | binding signal (RPM ratio (pull-down/input))
43 | GATGATTGTTCTCCCAGCTGATGAATTCGTTCACTCGAGTAAACAAATTTTCCTAATCTTTCTGTTCAAGCGCCATCTAC | 0.463
44 | GATGATTGTTCTCCCAGCTGATGAATTAATATGCTCGAGTAAACAAATTTTCCTAATCTTTCTGTTCAAGCGCCATCTAC | 1.06
45 | GATGATTGTTCTCCCAGCTGATGAATTAAGCCCATCGAGTAAACAAATTTTCCTAATCTTTCTGTTCAAGCGCCATCTAC | 1.01
46 | GATGATTGTTCTCCCAGCTGATGAATTACCCACCTCGAGTAAACAAATTTTCCTAATCTTTCTGTTCAAGCGCCATCTAC | 0.278
47 | GATGATTGTTCTCCCAGCTGATGAATTCGTGACGTCGAGTAAACAAATTTTCCTAATCTTTCTGTTCAAGCGCCATCTAC | 0.455
48 | GATGATTGTTCTCCCAGCTGATGAATTGGTCGTGTCGAGTAAACAAATTTTCCTAATCTTTCTGTTCAAGCGCCATCTAC | 0.88
49 | GATGATTGTTCTCCCAGCTGATGAATTTTTTCCATCGAGTAAACAAATTTTCCTAATCTTTCTGTTCAAGCGCCATCTAC | 0.239
50 | GATGATTGTTCTCCCAGCTGATGAATTTGTACTTTCGAGTAAACAAATTTTCCTAATCTTTCTGTTCAAGCGCCATCTAC | 1.75
51 | GATGATTGTTCTCCCAGCTGATGAATTCATTATGTCGAGTAAACAAATTTTCCTAATCTTTCTGTTCAAGCGCCATCTAC | 1.36
52 | GATGATTGTTCTCCCAGCTGATGAATTGGGTCTTTCGAGTAAACAAATTTTCCTAATCTTTCTGTTCAAGCGCCATCTAC | 0.418
53 | GATGATTGTTCTCCCAGCTGATGAATTGGGACAGTCGAGTAAACAAATTTTCCTAATCTTTCTGTTCAAGCGCCATCTAC | 0.363
54 | GATGATTGTTCTCCCAGCTGATGAATTATCTCTCTCGAGTAAACAAATTTTCCTAATCTTTCTGTTCAAGCGCCATCTAC | 0.321
55 | GATGATTGTTCTCCCAGCTGATGAATTGAGGCATTCGAGTAAACAAATTTTCCTAATCTTTCTGTTCAAGCGCCATCTAC | 4.56
56 | GATGATTGTTCTCCCAGCTGATGAATTCCGAGGTTCGAGTAAACAAATTTTCCTAATCTTTCTGTTCAAGCGCCATCTAC | 0.302
57 | GATGATTGTTCTCCCAGCTGATGAATTACACGGTTCGAGTAAACAAATTTTCCTAATCTTTCTGTTCAAGCGCCATCTAC | 0.455
58 | GATGATTGTTCTCCCAGCTGATGAATTGGGCGTCTCGAGTAAACAAATTTTCCTAATCTTTCTGTTCAAGCGCCATCTAC | 2.95
59 | GATGATTGTTCTCCCAGCTGATGAATTATTTAATTCGAGTAAACAAATTTTCCTAATCTTTCTGTTCAAGCGCCATCTAC | 0.435
60 | GATGATTGTTCTCCCAGCTGATGAATTGGTCCATTCGAGTAAACAAATTTTCCTAATCTTTCTGTTCAAGCGCCATCTAC | 0.402
61 | GATGATTGTTCTCCCAGCTGATGAATTGGGTCCATCGAGTAAACAAATTTTCCTAATCTTTCTGTTCAAGCGCCATCTAC | 0.339
62 | GATGATTGTTCTCCCAGCTGATGAATTCTGCCCATCGAGTAAACAAATTTTCCTAATCTTTCTGTTCAAGCGCCATCTAC | 1.28
63 | GATGATTGTTCTCCCAGCTGATGAATTGCAGATTTCGAGTAAACAAATTTTCCTAATCTTTCTGTTCAAGCGCCATCTAC | 0.644
